Here are results for 41 compounds from ChEMBL document CHEMBL4888484, “Replenishing the malaria drug discovery pipeline: Screening and hit evaluation of the MMV Hit Generation Library 1 (HGL1) against asexual blood stage Plasmodium falciparum ,using a nano luciferase reporter read-out” (2022).

Screen size: about 150,000 compounds; about 540 (0.36%) showed an effect of 50% or more. The list shows a part of the results.

The test system of the assay is Plasmodium falciparum. The assay is described as follows: Primary screen in NF54 nanoGlo assay, in single point, at 2uM, 72h; a lower Z score goes with more inhibition. The class given is functional, Erythrocyte. Particulars: timepoint 72 hour.
One may read the % Inhibition as the relative decrease from the control value, in per cent. Turning to `COc1ccccc1NC(=O)C[C@H]1C(=O)Nc2ccccc2N1C(=O)c1ccccc1`, the “% Inhibition” value is reported as 5% and the Z score was -0.88.

With `O=C(Nc1nc(-c2ccccc2)cs1)c1sc2cccc(Cl)c2c1Cl`, the “% Inhibition” value is -7% and the Z score is given as 0.79.

Take `O=C(Nc1ccccc1N1CCCC1)NC1CCCC2OCCC12` (configuration not stated): the “% Inhibition” value is recorded as -7% and the Z score turned out to be 0.81.

Regarding `C[C@@](Cn1cccn1)(NC(=O)c1ccc(Cl)s1)C(N)=O`, the “% Inhibition” value was -6% and the Z score was 0.83.

For the compound `O=C(c1ccco1)N1CCN(Cc2ccc3c(c2)CCO3)C[C@H](O)C1`, the “% Inhibition” value is recorded as -9% and the Z score is 1.05.

For the compound `Cc1[nH]c2ccc(OCC(=O)N(C)Cc3ccc(Cl)s3)cc2c1C`, the “% Inhibition” value was -5% and the Z score is given as 0.97.

In the case of `CCn1nccc1CNc1ccc(CN2CCN(C)CC2)c(Br)c1`, the “% Inhibition” value is listed as -1% and the Z score is on record as 0.14.

As for `Cc1c(C(c2ccc(-c3ccc(Cl)c(Cl)c3)o2)c2c(C)n(C)n(-c3ccccc3)c2=O)c(=O)n(-c2ccccc2)n1C`, the “% Inhibition” value was determined as 3% and the Z score is -0.5.

Turning to `O=C1NC(=O)N(Cc2ccccc2)[C@H]1c1cccs1`, the “% Inhibition” value stood at 5% and the Z score is listed as -0.76.

Take `Cc1cc(F)c(Br)cc1NCc1cncn1C`: the “% Inhibition” value was -37% and the Z score was found to be 4.34.

With `Cc1noc(C)c1N(C)CC(=O)N1CCCC[C@@H]1C`, the “% Inhibition” value is -2% and the Z score is reported as 0.2.

For `Cc1c([C@H](C)NC(=O)N2CC(C)S(=O)(=O)C(C)C2)oc2ccccc12` (some centres not stated), the “% Inhibition” value is -5% and the Z score came to 0.68.

In the case of `Cc1cn(C)c(CC(=O)N2CCN(c3cccc(C(F)(F)F)c3)CC2)c1C(=O)O`, the “% Inhibition” value was 1% and the Z score is -0.13.

As for `CCO[C@H]1COCC[C@@H]1NC(=O)c1ccc2c(c1)OCO2`, the “% Inhibition” value is reported as -9% and the Z score was found to be 0.95.

As to `C[C@@H](C(=O)NCCCN(C)C1CCCCC1)n1nc(-c2ccccc2)c2cc(Cl)ccc21`, the “% Inhibition” value is -4% and the Z score came to 0.81.

For `Cn1ccnc1-c1ccccc1C(=O)Nc1ccc(Oc2nnn[nH]2)cc1`, the “% Inhibition” value is recorded as 1% and the Z score is -0.18.

For the compound `CN1CCc2[nH]cnc2C12CCN(C(=O)[C@@H]1COc3ccccc3C1)CC2`, the “% Inhibition” value was determined as 0% and the Z score is -0.01.

For the compound `COc1ccccc1CC(=O)c1ccc(O)c(CN2CCOCC2)c1O`, the “% Inhibition” value is on record as -3% and the Z score is reported as 0.39.

On to `Cc1cccc(OCC(=O)N2CC[C@H](Oc3cnccn3)C2)c1`, for which the “% Inhibition” value is -13% and the Z score was 1.53.

Consider `COc1cc(C)ccc1OCc1nc(C(=O)NC2CCCC2)co1`, for which the “% Inhibition” value is on record as 3% and the Z score is reported as -0.29.

On to `FC(F)(F)c1cccc(-c2cn[nH]c2[C@H]2CCCNC2)c1`, for which the “% Inhibition” value was -3% and the Z score is reported as 0.47.

Regarding `COc1ccccc1CNC(=O)c1cnn2c3c(cnc12)CCCC3`, the “% Inhibition” value came out at 31% and the Z score is reported as -4.49.

For `CN(Cc1ccc(Cl)s1)C(=O)CNCCn1cccn1`, the “% Inhibition” value is listed as -9% and the Z score was determined as 1.62.

Regarding `O=C(NCc1nc(C(F)(F)F)n[nH]1)[C@H]1CC12CC2`, the “% Inhibition” value is given as -12% and the Z score was found to be 1.86.

Regarding `COc1ccc(OC(C)C)c(NC(=O)N2CCO[C@H]3CN(C(=O)OC(C)(C)C)C[C@H]32)c1`, the “% Inhibition” value is reported as -3% and the Z score turned out to be 0.45.

Take `Cc1cccc([C@@H](NC(=O)c2cc(C)nc(C)n2)C2CC2)n1`: the “% Inhibition” value is recorded as -7% and the Z score was 0.87.

On to `CN(C)C(=O)N1C[C@H]2CC[C@@H](C1)N(Cc1nnc(-c3ccccc3)o1)C2`, for which the “% Inhibition” value was -1% and the Z score was determined as 0.15.

Take `COCC(=O)N[C@H]1CCN(c2nccs2)C1`: the “% Inhibition” value is given as -8% and the Z score was determined as 1.6.

As to `CN(C)Cc1cc2n(n1)CCN(Cc1cnc(-c3cccs3)nc1)C2`, the “% Inhibition” value is -8% and the Z score is recorded as 0.82.

For `CCn1nc(-n2cnnc2)c(NS(=O)(=O)c2ccc(C)cc2)c1C`, the “% Inhibition” value is -9% and the Z score came out at 1.53.

As for `COc1ccc(F)c(CN2CCC[C@@]3(CCN(C(=O)c4ccoc4)C3)C2=O)c1`, the “% Inhibition” value is -16% and the Z score is recorded as 1.37.

`Cn1ccnc1C(O)C1CCCN(Cc2ccc(F)cc2C#N)C1` (configuration not stated): the “% Inhibition” value is given as -2% and the Z score is given as 0.23.

As for `CC(C)Cn1cncc1CNC(=O)CCc1ccc(F)cc1F`, the “% Inhibition” value is given as -5% and the Z score is 0.94.

For the compound `O=c1c(CN[C@H]2CC[C@H](O)CC2)cc2ccc(F)cc2n1Cc1ccncc1`, the “% Inhibition” value was -1% and the Z score was 0.13.

With `CC(C)(CS(=O)(=O)NCc1ccno1)C(F)(F)F`, the “% Inhibition” value was -11% and the Z score came to 1.39.

As for `c1ccc(-c2nc(NCc3nnc(C4CC4)o3)c3ccccc3n2)cc1`, the “% Inhibition” value is -1% and the Z score is on record as 0.22.

For `Cc1cc(C(F)(F)F)n(C[C@@H](C)CNC(=O)Nc2ccc3[nH]nnc3c2)n1`, the “% Inhibition” value is on record as -4% and the Z score was determined as 0.57.

In the case of `Cc1noc2ncnc(NCCCN3CCOCC3)c12`, the “% Inhibition” value is -12% and the Z score worked out at 2.13.

As to `CO[C@H]1CCCN(C(=O)c2cnc(COc3ccc(C(C)(C)C)cc3)nc2O)C1`, the “% Inhibition” value came out at 0% and the Z score amounted to 0.

With `Cc1ccc2[nH]c(=O)cc(C(=O)N3CC(=O)N(c4ccccc4C)C[C@@H]3C)c2c1`, the “% Inhibition” value was 0% and the Z score is on record as 0.07.

For the compound `CCn1c(=O)c(N2CCN(C(=O)Cc3ccc(OC)c(Cl)c3)CC2)nc2ccncc21`, the “% Inhibition” value is -13% and the Z score is recorded as 1.25.
